In paper PMC1630494:

Key:
Assay in all cases: FRET or BRET
Conditions in all cases: remark: other sources report otherwise
[1] = target: T1, survival of motor neurons (SMN) protein, tagged with CFP or YFP, Q16637
[2] = target: T1, survival of motor neurons (SMN) …; remark: listed apart in the source
[3] = target: coilin, tagged with CFP or YFP, P38432
[4] = target: coilin, tagged with CFP or YFP, P38432; remark: listed apart in the source

B1: coilin, tagged with CFP or YFP (natural protein)
chain: MAASETVRLRLQFDYPPPATPHCTAFWLLVDLNRCRVVTDLISLIRQRFGFSSGAFLGLYLEGGLLPPAESARLVRDNDCLRVKLEERGVAENSVVISNGDINLSLRKAKKRAFQLEEGEETEPDCKYSKKHWKSRENNNNNEKVLDLEPKAVTDQTVSKKNKRKNKATCGTVGDDNEEAKRKSPKKKEKCEYKKKAKNPKSPKVQAVKDWANQRCSSPKGSARNSLVKAKRKGSVSVCSKESPSSSSESESCDESISDGPSKVTLEARNSSEKLPTELSKEEPSTKNTTADKLAIKLGFSLTPSKGKTSGTTSSSSDSSAESDDQCLMSSSTPECAAGFLKTVGLFAGRGRPGPGLSSQT[here about 200 residues without letters]
Question: Which increase in donor fluorescence after acceptor bleaching (FRET) [1] does the source give for B1 here?
Answer: The increase in donor fluorescence after acceptor bleaching (FRET) was 6.29%.

Question: What about the increase in donor fluorescence after acceptor bleaching (FRET) [2] of the same binder?
Answer: The increase in donor fluorescence after acceptor bleaching (FRET) was 6.5%.

Question: And the increase in donor fluorescence after acceptor bleaching (FRET) [3]?
Answer: The increase in donor fluorescence after acceptor bleaching (FRET) was 10.3%.

Question: And the increase in donor fluorescence after acceptor bleaching (FRET) [4]?
Answer: The increase in donor fluorescence after acceptor bleaching (FRET) was 10.3%.
